In a collection of fitness landscapes (doi:10.1126/science.1257360) one finds enrichment ratio data, which are given here for 153 variants.

This is one part of the list.

B1: PhoQ; a variant is named by its letters at X, in order, P23837 (parent)
chain: MKKLLRLFFPLSLRVRFLLATAAVVLVLSLAYGMVALIGYSVSFDKTTFRLLRGESNLFYTLAKWENNKLHVELPENIDKQSPTMTLIYDENGQLLWAQRDVPWLMKMIQPDWLKSNGFHEIEADVNDTSLLLSGDHSIQQQLQEVREDDDDAEMTHSVAVNVYPATSRMPKLTIVVVDTIPVELKSSYMVWSWFIYVLSANLLLVIPLLWVAAWWSLRPIEALAKEVRELEEHNRELLNPATTRELTSLVRNLNRLLKSERERYDKYRTTLTDLTHSLKTPLXXLQXXLRSLRSEKMSVSDAEPVMLEQISRISQQIGYYLHRASMRGGTLLSRELHPVAPLLDNLTSALNKVYQRKGVNISLDISPEISFVGEQNDFVEVMGNVLDNACKYCLEFVEISARQTDEHLYIVVEDDGPGIPLSKREVIFDRGQRVDTLRPGQGVGLAVAREITEQYEGKIVAGESMLGGARMEVIFGRQHSAPKDE

This experiment covers variants of B1. Briefly: enrichment ratio after two sorts for PhoP signalling (ratio (wild type AVST 3.29)); higher = more functional. The conditions noted are these: with PhoP (E. coli).
As for HSMR, the enrichment ratio is not above 0.25.
Next, EGTC: not above 0.25; QESN: 5.1.
With QFSY, the enrichment ratio was not above 0.25.
Under RFMM stands not above 0.25.
Next, WGLF: 0.458; FQVS: not above 0.25; KCGW: not above 0.25.
Next, QDPN: not above 0.25.
For IEKY, the enrichment ratio is not above 0.25.
Under TGGQ stands 3.57; under GTLD, not above 0.25.
Next, TRSV: not above 0.25; RDIN: not above 0.25.
Under VYWC stands not above 0.25.
As for RHAF, the enrichment ratio is not above 0.25.
As to DVHT, the enrichment ratio was not above 0.25.
Under RKYN stands not above 0.25.
Next, RATN: not above 0.25; DYNL: not above 0.25; PCMS: not above 0.25.
On to WACF, for which the enrichment ratio was not above 0.25.
Under WEII stands not above 0.25.
On to YLIK, for which the enrichment ratio was not above 0.25.
Next, PRCQ: not above 0.25; TFMN: not above 0.25.
Under AGLP stands not above 0.25; under GDIW, not above 0.25.
Consider MMNR, for which the enrichment ratio was not above 0.25.
Next, STEK: not above 0.25; YKDQ: not above 0.25; LFLR: not above 0.25.
Next, LCIQ: not above 0.25.
Next, PRWD: not above 0.25; YNDL: not above 0.25.
As for ESEI, the enrichment ratio is not above 0.25.
Under RFME stands not above 0.25; under PDHD, not above 0.25; under PAHR, not above 0.25.
Next, FDLS: not above 0.25.
Next, RKME: not above 0.25.
Consider DLPR, for which the enrichment ratio is not above 0.25.
Under IGNN stands not above 0.25.
Next, DNYG: not above 0.25.
Under WFSQ stands not above 0.25; under GQAS, 0.909; under TNQR, not above 0.25.
With WGIK, the enrichment ratio was not above 0.25.
Under LAFL stands 2.72.
Next, YVNL: not above 0.25; WDSK: not above 0.25.
As for KSNA, the enrichment ratio was not above 0.25.
Under NDDD stands not above 0.25; under ELPF, not above 0.25; under HPLM, not above 0.25.
Next, GNLF: 6.83; AIDL: not above 0.25.
Take KNQG: the enrichment ratio is not above 0.25.
In the case of GGTY, the enrichment ratio was not above 0.25.
Turning to DGWW, the enrichment ratio is not above 0.25.
Under AYPL stands not above 0.25; under SQRY, not above 0.25.
Consider VQVL, for which the enrichment ratio is not above 0.25.
Next, PYHA: not above 0.25; LTHT: not above 0.25.
On to IMMH, for which the enrichment ratio was not above 0.25.
On to PQDD, for which the enrichment ratio was not above 0.25.
Under NSNM stands not above 0.25; under YGKR, not above 0.25.
Next, MDHP: not above 0.25.
WYIS: the enrichment ratio was not above 0.25.
On to QNLM, for which the enrichment ratio was not above 0.25.
Under YRGY stands not above 0.25; under AMVL, 4.86; under ISMN, not above 0.25.
Next, NGIL: not above 0.25.
Under AMLR stands 2.02; under SFAD, not above 0.25; under PFFS, not above 0.25.
In the case of FLIC, the enrichment ratio is not above 0.25.
Turning to INIW, the enrichment ratio is not above 0.25.
Next, QSEN: not above 0.25; REYF: not above 0.25.
Under YNQH stands not above 0.25.
Under TIFD stands not above 0.25; under QYSQ, not above 0.25; under AQFM, 12.2.
With KVST, the enrichment ratio is not above 0.25.
Turning to GWEW, the enrichment ratio was not above 0.25.
Under SQCM stands 19.2; under RKSG, not above 0.25; under IHFD, not above 0.25.
Under WTCA stands not above 0.25; under VCIM, not above 0.25; under PQVW, not above 0.25.
Under GQRQ stands not above 0.25; under TRKC, not above 0.25.
For HGQP, the enrichment ratio is not above 0.25.
For the variant HDHT, the enrichment ratio was not above 0.25.
Next, FTMT: not above 0.25; KNFK: not above 0.25; AGAM: 5.14.
Turning to PENA, the enrichment ratio was not above 0.25.
Under IVLK stands not above 0.25; under YHQG, not above 0.25; under LQQE, not above 0.25.
Next, IICL: not above 0.25; TNCN: 1.66; EFTS: not above 0.25.
With FGDV, the enrichment ratio was not above 0.25.
Next, VVRK: not above 0.25; ELTV: not above 0.25.
Next, YPYY: not above 0.25; SSVR: not above 0.25; YQWC: not above 0.25.
Next, WCST: not above 0.25; FQGR: not above 0.25; YDHI: not above 0.25.
For MMSP, the enrichment ratio was not above 0.25.
Next, YSHK: not above 0.25; WDTI: not above 0.25.
Under MYNH stands not above 0.25; under YTLG, 6.93.
Next, VFPW: not above 0.25; GYKR: not above 0.25.
For the variant YLVQ, the enrichment ratio was not above 0.25.
Under NLIW stands not above 0.25; under SYHL, not above 0.25.
SPFV: the enrichment ratio is not above 0.25.
Under PKMF stands not above 0.25; under RRLK, not above 0.25; under LVFS, not above 0.25.
WSTI: the enrichment ratio is not above 0.25.
Under NPEL stands not above 0.25.
Under HQFQ stands not above 0.25; under FKDE, not above 0.25; under VNIY, not above 0.25.
As to WTMW, the enrichment ratio is not above 0.25.
Next, ELTQ: not above 0.25; GVIF: not above 0.25; LMQI: not above 0.25.
Next, QNQP: not above 0.25; RRMC: not above 0.25; RGEF: not above 0.25.
Next, HGHE: not above 0.25; TYCG: 5.58.
Regarding KTAP, the enrichment ratio was not above 0.25.
Under LCGE stands not above 0.25; under SCIF, 0.456.
Under YTCP stands not above 0.25; under GGFG, not above 0.25; under PSSC, not above 0.25.
Next, WNRC: not above 0.25.
